Each structure is given as a SMILES string. About 800 (1.6%) of roughly 50,000 compounds showed an effect of 50% or more. This is one part of the list.

The record followed here is PubChem BioAssay AID1240 (Sanford-Burnham Center for Chemical Genomics, 2008).

For the experiment, the target named is Bcl-2-like protein 10 (Homo sapiens) (UniProt Q9HD36). Description: Phenotype converters, Bcl-B/TR3 peptide binding displacement, primary biochemical FP (AID 1240).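 Also: 0% = Bcl-B with tracer peptide and DMSO and 100% = tracer peptide lacking Bcl-B.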 Particulars: GST-Bcl-B / FITC-TR3 peptide fluorescence polarization; stronger effect = higher value; compound at 3.75 mg/L. In general terms: Fluorescence polarisation rises when a labelled molecule tumbles more slowly, as on binding a larger partner.
Chain of UniProt Q9HD36 (Q9HD36 whole entry, looked up): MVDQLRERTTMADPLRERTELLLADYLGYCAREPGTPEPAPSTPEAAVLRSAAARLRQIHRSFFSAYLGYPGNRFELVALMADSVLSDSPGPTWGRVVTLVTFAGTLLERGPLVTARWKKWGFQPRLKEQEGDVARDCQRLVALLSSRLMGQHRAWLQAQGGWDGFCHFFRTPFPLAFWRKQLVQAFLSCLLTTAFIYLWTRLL
`CCN1CCN(CC(O)COc2cc(C)c(Cl)c(C)c2)CC1` (stereo not drawn): the displacement was -0.1%. In the case of `COc1ccc(C(=O)/C=C/NCC(=O)c2ccccc2)cc1` it was -15%; in that of `O=C1c2cccc3cccc(c23)C(=O)N1CCCCO`, 6.6%. As for `CN(C)Cc1c(O)ccc2[nH]cnc12`, the displacement was -12%.

For `COc1ccc(C2OCC3(CO2)SC2=NCN(C)CN2C3=O)cc1` (stereo not drawn), the displacement was -11.6%. In the case of `Cc1ccccc1NCc1nc2ccccc2n1Cc1ccccc1` it was -1.6%; in that of `Cc1ccc2oc(-c3cc(NC(=O)c4ccc5c(c4)OCCO5)ccc3O)nc2c1`, 7.4%; in that of `CCOC(=O)/C(C#N)=C1\C(Cl)=C(Cl)c2ccccc21`, 11.2%.

Regarding `COC(=O)c1ccc(COc2ccc(-c3ccccc3)cc2)o1`, the displacement amounted to 6.1%. Then `CC(C)(C)C(=O)/C=C/c1ccc(-n2nncc2C(C)(C)C)cc1`, with -10.2%; and `O=C(Nc1nc(-c2ccccc2)c(-c2ccccc2)s1)c1ccc(S(=O)(=O)N2CCCC2)cc1`, with 9.2%; and `CC(C)(C)c1ccc(S(=O)(=O)/N=C2\C=CC(=O)C(Br)=C2)cc1`, with -8.3%. In the case of `COc1cc(/C=C2\SC(=S)N(C(C(=O)O)C(C)C)C2=O)ccc1O` (stereo not drawn) it was -126%.

In the case of `O=C(O)/C=C/c1cccc(NS(=O)(=O)c2cccs2)c1`, the displacement was -13%. As to `Cc1cc(Cl)ccc1OCC(O)CN1CCN(c2ccccc2)CC1` (stereo not drawn), the displacement was -3.7%. As to `Cc1c(NC(=O)c2ccccc2N)cccc1C(=O)O`, the displacement was 1.7%. In the case of `Cc1ccc2c(Cl)c(C(=O)N3CCc4ccccc4C3)sc2c1` it was 8.5%; in that of `O=C(CCCOc1ccccc1)Nc1cccc(Br)c1`, -2.5%. In the case of `CCC(Oc1ccccc1)C(=O)N1CCN(c2ccc(Cl)cc2)CC1` (stereo not drawn) it was -1.6%.

`Cc1cc2ncn(CC(O)COc3ccc4ccccc4c3)c2cc1C` (stereo not drawn): the displacement came out at 13.8%.

Take `S=c1[nH]nc(-c2ccc(Cl)cc2)n1-c1ccc(Cl)cc1`: the displacement is -3.9%. Turning to `COc1ccc(C2/C(=C(/O)c3ccccc3)C(=O)C(=O)N2c2cccc([N+](=O)[O-])c2)cc1OC` (stereo not drawn), the displacement stood at 3.3%. As for `c1ccc(CN=C2CCCc3ccccc3N2)cc1`, the displacement was determined as 4.9%.

Take `CC1CN(c2nc(-c3ccc(Cl)cc3)nc3ccccc23)CC(C)O1` (stereo not drawn): the displacement worked out at 5.9%. Regarding `C=C(C)COc1ccc2ccc(=O)oc2c1`, the displacement amounted to 11.4%. Then `CCC(=O)N1c2ccccc2NC2=C(C(=O)CC(C)(C)C2)C1c1ccc([N+](=O)[O-])cc1` (stereo not drawn), with 21.6%; and `COc1cc(C(=O)Nc2ccc(C(N)=O)cc2)cc(OC)c1OC`, with -4.2%; and `CC(=O)Nc1cccc(NS(=O)(=O)c2ccccc2)c1`, with 9.1%. Then `O=C(O)c1ccccc1-c1ccccc1C(=O)NCCc1ccccc1`, with 7.8%. Then `Fc1cnc(NN=Cc2ccco2)nc1N1CCOCC1`, with -13.1%; and `CC1=C(C(=O)OC2CCCC2)C(c2ccc(Cl)cc2)NC(=O)N1` (stereo not drawn), with 7.3%. For the compound `O=C1C2C3C=CC(C3=C3CCCCC3)C2C(=O)N1c1ccc(Cl)c(Cl)c1` (stereo not drawn), the displacement is -18.7%. In the case of `Cc1cc(O)cc2c(=O)c3ccccc3sc12` it was 22.7%; in that of `COc1ccc(OC)c(/C=C/C(=O)Nc2ccc(C)c(Cl)c2)c1`, 11.8%; in that of `C=CCn1c(SCC(=O)c2ccc(Br)cc2)nc2sc3c(c2c1=O)CCN(C)C3`, 18.5%.

For the compound `COc1ccc(C(=O)NC(OCc2ccccc2)C(Cl)(Cl)Cl)cc1OC` (stereo not drawn), the displacement was -1.1%. With `O=C(Nc1nc2ccccc2n1CCOc1ccccc1)c1ccccc1`, the displacement was -5.1%.

Consider `CN(C)c1ccc(/C=N/NC(=O)c2ccc(O)cc2O)cc1Br`, for which the displacement is 13.1%. Turning to `COc1ccc(CCN=C(C)C2=C(O)COC2=O)cc1OC`, the displacement came to 6.1%. For the compound `CCCc1cc(=O)oc2cc(OCc3ccccc3Cl)ccc12`, the displacement came to 21.4%. Regarding `CCOc1ccc(-c2nc3sc4c(c3c(=O)[nH]2)CCCC4)cc1OCC`, the displacement came to 1.2%. Then `COc1cc(C2CC(=O)NC(C)=C2C(=O)OC(C)C)c(Br)c(OC)c1OC` (stereo not drawn), with -3.5%; and `COc1ccc(S(=O)(=O)N2CCCC2)cc1Br`, with 4.5%; and `CC(=O)N1N=C2CCCCC2C1C(C)C` (stereo not drawn), with 7.8%.

In the case of `CN(C)c1ccc(NC(=O)CCC2CCCCC2)cc1`, the displacement was 30.7%. In the case of `OCCNCCCCOc1cccc(Cl)c1` it was 7.4%; in that of `COc1cccc(/C=C2\CC/C(=C\c3cccc(OC)c3OC)C2=O)c1OC`, 3.7%. In the case of `CCOC(=O)Cc1csc(NC(=O)COc2ccccc2[N+](=O)[O-])n1` it was -2%. In the case of `CC(=O)C1=C(C)NC(C)=C(C(C)=O)C1c1cccs1` it was -20.1%; in that of `Cc1nnc(N/N=C/c2cccc([N+](=O)[O-])c2)[nH]c1=O`, 4.8%; in that of `Fc1ccccc1OCCOCCOc1ncnc2ccccc12`, -4%. For `O=C(c1ccccc1)N1CCN(Cc2cccc(Oc3ccccc3)c2)CC1`, the displacement is -8.8%. Consider `O=C(O)C1CC=CCC1C(=O)Nc1cccc(O)c1` (stereo not drawn), for which the displacement was determined as 1.6%. Take `COc1ccc(N2C(=O)NC(=O)/C(=C\c3ccc(OC)cc3C)C2=O)cc1`: the displacement stood at 0.7%.

In the case of `CCOc1ccc(C(=O)Nc2ccc(NC(=O)CC)cc2)cc1Cl`, the displacement came to 13.6%. Turning to `Cc1cccc(COc2ccc3c(c2)oc(=O)c2ccccc23)c1`, the displacement is 6.2%. In the case of `O=C(NCCc1ccccc1)C(=O)Nc1cccc(Cl)c1` it was 5.5%; in that of `CC(=O)c1c(N2CCOCC2)nc(=S)n(-c2ccc([N+](=O)[O-])cc2)c1C`, -7.4%. Then `CCN(CC)C(=O)c1sc(NC(=O)c2ccc(Cl)cc2)c(C#N)c1C`, with -4.4%; and `O=C(Nc1cccc(Oc2ccc3c(c2)C(=O)N(c2ccccc2)C3=O)c1)c1cccc([N+](=O)[O-])c1`, with 12.7%; and `CCC(=O)Nc1cccc(NC(=O)c2ccc([N+](=O)[O-])cc2)c1`, with 16.4%. As for `O=C1/C(=C/c2cccc(O)c2)SC(=S)N1c1cccc(Br)c1`, the displacement is 16.4%. In the case of `CC/C(=C1/C(=O)N(c2nc3ccccc3s2)N=C1C(F)(F)F)N1CCOCC1` it was -7%. On to `Cc1cc(Br)cc(/C=N/NC(=O)c2cncc(Br)c2)c1O`, for which the displacement amounted to 8.9%. With `O=C(NC(=O)c1ccncc1)NC(c1ccccc1)c1ccccc1`, the displacement came to 0.6%. Consider `CCCN(CCC)C(=O)c1ccccc1NC(=O)c1ccccc1Cl`, for which the displacement is 10.7%. In the case of `COc1ccc(CCNC(=O)C(=O)Nc2ccc(OC)c(Cl)c2)cc1` it was -7%.

`C=C(C)Cn1c(-c2ccc(Br)cc2)n[nH]c1=S`: the displacement was -6.1%.

Regarding `CCOC(=O)C(C)P(=O)(c1ccccc1)c1ccccc1` (stereo not drawn), the displacement was 11.9%. As to `CC1CN(c2ccc(C(F)(F)F)cc2[N+](=O)[O-])CCN1S(C)(=O)=O` (stereo not drawn), the displacement stood at 8.9%. Then `C=CCN1C(=O)C(Cc2ccc(OC)cc2)SC1=Nc1ccc(C(=O)O)cc1` (stereo not drawn), with -10.3%. Then `Cc1ccc(-c2nc3ccc(C)cn3c2NC(=O)c2ccco2)cc1`, with 9.9%.

For the compound `CCCOc1ccc(C2Nc3ccccc3NC3=C2C(=O)CC(c2ccc(OC)c(OC)c2)C3)cc1` (stereo not drawn), the displacement was -1.6%. On to `COc1ccc(Cn2c(SC)nc(O)cc2=O)cc1`, for which the displacement is -2%.

For the compound `CC(=O)Nc1nnc(Cc2ccc(Cl)cc2)s1`, the displacement was -1.6%.

Turning to `Cc1c(Cl)cccc1NC(=O)C(=O)NC1CC(C)(C)NC(C)(C)C1`, the displacement was -0.4%. In the case of `CCOc1ccc2ccccc2c1/C=N/NC(=O)CN1CCOCC1` it was -3.9%; in that of `Cc1ccc(NC(=O)c2cc(Br)ccc2Cl)c([N+](=O)[O-])c1`, 12.1%; in that of `COC(C(=O)N/N=C/c1ccc2c3c(cccc13)CC2)c1ccccc1` (stereo not drawn), 1.9%. `O=C1C(=O)N(c2cccnc2)C(c2cccc(F)c2)/C1=C(\O)c1ccc(Cl)cc1` (stereo not drawn): the displacement is -3.5%.

On to `Cc1cc(C)c(OCCNC(C)(C)C)c(Cl)c1`, for which the displacement was -2.1%.

On to `COc1cc(NC(=O)COc2ccc(Cl)c(C)c2)ccc1NC(=O)c1ccco1`, for which the displacement was -6.3%.

Consider `Nc1nnc(Cc2ccc(Cl)cc2Cl)s1`, for which the displacement was -4%. In the case of `O=[N+]([O-])c1cc(-n2ncnc2-c2cccs2)ccc1F` it was 16.1%; in that of `CCOC(=O)C1CCN(C(=S)Nc2ccc(OCC)cc2)CC1`, -2.6%.

For `CCC(=O)Oc1ccc2c(C)c(CC)c(=O)oc2c1I`, the displacement is -0.6%. `CCOc1ccc(-c2cc(C(=O)NN)c3ccccc3n2)cc1`: the displacement was -18%. Then `O=C(O)CCCC1OC(CCCC(=O)O)OC(CCCC(=O)O)O1` (stereo not drawn), with 0.6%; and `O=C1c2ccccc2C(=O)N1c1ccc2c(c1)C(=O)N(c1ccccc1)C2=O`, with -2.4%. As to `O=C(COc1ccccc1)Nc1cccc(NC(=O)c2ccco2)c1`, the displacement was -10.7%. For the compound `NNC(=O)/C(=C\c1cccs1)NC(=O)c1ccccc1`, the displacement was -14.5%. Turning to `Cc1ccccc1OCC(=O)Nc1ccccc1CO`, the displacement is -7.8%.

Take `COCCNC(=O)CN(c1ccc(C)c(Cl)c1)S(C)(=O)=O`: the displacement is -6.8%. In the case of `COc1cccc(/C=C/C(=O)c2ccc(F)cc2)c1` it was 3.6%; in that of `CCOC(=O)c1c(NC(=O)c2cc(OC)c(OC)c(OC)c2)sc2c1CCC(C)C2` (stereo not drawn), 5.9%; in that of `CCc1nn2c(N)c(C=C3C=C(Cl)C(=O)C(Cl)=C3)c(=O)nc2s1`, -1.8%. Then `CC(C)(C)c1cc(N)c(O)c(C(C)(C)C)c1`, with -1.9%; and `O=C(/C=C/c1ccc(-c2ccccc2[N+](=O)[O-])o1)NCc1ccccc1`, with -12.8%; and `O=C1c2cc(S(=O)(=O)Nc3ccncc3)ccc2-c2ccc(S(=O)(=O)Nc3ccncc3)cc21`, with 14.2%. With `Cn1c(=O)c2c(nc3n2CC(=O)N3c2ccc(F)cc2F)n(C)c1=O`, the displacement was determined as 7.3%.

Regarding `CCOC(=O)Cc1c(C)n2nc(C)cc2[nH]c1=O`, the displacement was found to be 8%.

As for `Cc1ccc(S(=O)(=O)C(CC(=O)c2ccccc2)c2ccc(Cl)cc2)cc1` (stereo not drawn), the displacement is -7.1%.

`Cc1ccc(NC(=O)c2ccc(NC(=O)c3ccc(Cl)cc3Cl)cc2)cc1`: the displacement came to 11.5%.

As for `CC1=NN(c2ccccc2)C(=O)/C1=C\c1ccc(N2CCOCC2)c([N+](=O)[O-])c1`, the displacement worked out at 13.4%. On to `Cc1ccccc1-n1c(=O)c2ccccc2n2c(=O)[nH]nc12`, for which the displacement came out at 15.9%. For the compound `C=CCSc1nnc(-c2ccc(Br)cc2)o1`, the displacement was -8.1%.

For `NNC(=O)COc1ccc(-c2cc(-c3ccccc3)c3cc(Br)ccc3n2)cc1`, the displacement is -7%. Then `C=CCN(CC=C)C(=O)c1cc(Cl)ccc1[N+](=O)[O-]`, with -2.9%; and `CN(C)CCCNC(=O)/C=C/c1ccc(Cl)cc1`, with 14%; and `Cc1cc(N=CC2=C(O)CC(C)(C)CC2=O)no1`, with -3.3%. In the case of `Cc1cc(C)cc(CSCC(=O)Nc2c(C)cccc2C)c1` it was -1.8%. Take `Cc1ccc2c(c1)-c1c(ssc1=S)C(C)(C)N2C(=O)Cc1ccc(F)cc1`: the displacement is 0.2%. Consider `Cc1c(Cc2ccccc2)c(=O)oc2cc(OCc3ccc([N+](=O)[O-])cc3)ccc12`, for which the displacement was -7.1%.
